Assay results reported in PMC4336329 (PLoS ONE, 2015).
The campaign covered roughly 310,000 compounds. About 14,000 (4.5%) showed an effect of 50% or more. Effects have a minus sign here. The list shows a part of the results.

biological target: human ether-à-go-go-related gene (hERG) potassium channel (human, UniProt Q12809); test: primary screen, population patch clamp on CHO cells stably expressing hERG
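Note: peak tail current of the secondary pulse compared with the same well before compound.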

human ether-à-go-go-related gene (hERG) potassium channel, sequence (Q12809 whole entry, looked up): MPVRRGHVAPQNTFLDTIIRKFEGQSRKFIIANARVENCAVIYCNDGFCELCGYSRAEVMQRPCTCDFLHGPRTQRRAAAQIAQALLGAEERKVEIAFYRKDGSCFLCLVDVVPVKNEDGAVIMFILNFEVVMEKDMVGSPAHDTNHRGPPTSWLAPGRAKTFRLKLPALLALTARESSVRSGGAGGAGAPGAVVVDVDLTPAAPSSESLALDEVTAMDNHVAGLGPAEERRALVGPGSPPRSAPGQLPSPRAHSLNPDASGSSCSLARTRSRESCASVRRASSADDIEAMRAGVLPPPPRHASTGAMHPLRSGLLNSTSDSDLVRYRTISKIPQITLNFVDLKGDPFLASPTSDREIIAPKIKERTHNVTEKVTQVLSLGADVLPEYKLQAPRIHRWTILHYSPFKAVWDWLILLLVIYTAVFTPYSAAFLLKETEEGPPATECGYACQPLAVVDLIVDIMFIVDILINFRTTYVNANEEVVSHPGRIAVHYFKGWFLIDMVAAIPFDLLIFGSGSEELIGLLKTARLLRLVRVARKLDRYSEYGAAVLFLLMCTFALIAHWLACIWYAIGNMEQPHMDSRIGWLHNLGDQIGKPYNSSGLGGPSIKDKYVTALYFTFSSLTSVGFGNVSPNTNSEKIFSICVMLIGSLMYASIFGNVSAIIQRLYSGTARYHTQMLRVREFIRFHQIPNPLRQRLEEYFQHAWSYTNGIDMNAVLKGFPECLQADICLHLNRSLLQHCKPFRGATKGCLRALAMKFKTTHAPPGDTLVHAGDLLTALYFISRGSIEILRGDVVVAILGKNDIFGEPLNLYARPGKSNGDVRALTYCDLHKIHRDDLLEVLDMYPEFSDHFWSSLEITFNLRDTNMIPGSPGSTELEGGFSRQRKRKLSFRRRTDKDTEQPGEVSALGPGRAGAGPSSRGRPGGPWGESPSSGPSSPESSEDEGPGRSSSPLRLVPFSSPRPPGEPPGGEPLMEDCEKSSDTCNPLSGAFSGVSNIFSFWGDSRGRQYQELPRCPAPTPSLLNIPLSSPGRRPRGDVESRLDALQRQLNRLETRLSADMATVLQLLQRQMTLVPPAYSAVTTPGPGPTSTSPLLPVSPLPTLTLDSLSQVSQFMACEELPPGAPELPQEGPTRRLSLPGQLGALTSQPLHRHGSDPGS

Compound	hERG current change (%, negative = inhibition) at 10uM [%]
COc1cccc(NC(=O)NCCCN2CCN(c3ccc(F)cc3)CC2)c1	-73.2
Cc1ccc(C)c(OCC(=O)Nc2ccccc2C(=O)N2CCOCC2)c1	3.32
COC(=O)c1ccc(S(=O)(=O)N2CCN(C)CC2)n1C	15
Cc1ccc(S(=O)(=O)N2CCN(S(=O)(=O)N3CCCCCC3)CC2)cc1	20.4
Cc1ccc(CC2CC(=O)N(c3nc4ccccc4n3C)C2=O)cc1 (centres unmarked)	-1.79
COC(=O)c1c(C)nn(-c2ccc(F)c(Cl)c2)c1-c1cc(C)on1	-4.39
O=C(CNC(=O)c1ccccc1F)OCc1nc2ccc(Cl)cc2n1CCO	-32.6
O=C(Cc1ccc(Br)cc1)c1ccc(O)cc1O	14.3
COc1ccc(/C=C/C(=O)N(C)C2CCS(=O)(=O)C2)cc1OC (centres unmarked)	2.01
CC(=O)Oc1ccc(C2(C)CC(C)(C)NC(=S)N2C)c(OC(C)=O)c1 (centres unmarked)	12.1
O=C(C1=C[C@H](c2csc3ccccc23)C[C@H](OCCCCO)O1)N1CCN(Cc2ccccc2)CC1	-28.6
N/C(=N\OC(=O)c1cccnc1)c1ccc(Cl)cc1Cl	12.7
COCCn1c(SCC(=O)c2ccc(Cl)cc2)nnc1C(C)C	7.06
O=C(NCC(c1ccco1)N1CCc2ccccc21)c1cccc(F)c1 (centres unmarked)	-19.4
O=C(N(c1ccccn1)c1ccccn1)C12CC3CC(CC(Cl)(C3)C1)C2	11.5
Cc1cc(=O)oc2cc(OCC(=O)NCCCN3CCCC3=O)c(Cl)cc12	1.84
Cc1ccc(S(=O)(=O)NCCNC(=O)c2nonc2N)cc1	21.6
O=C(Nc1ccc(F)c(F)c1)c1oc2ccccc2c1NC(=O)C1CCCO1 (centres unmarked)	7.59
Brc1ccccc1OCCCN1CCCCCC1.O=C(O)C(=O)O	-72.6
Cc1ccc(S(=O)(=O)c2c(N)n(NC(=O)c3ccccc3C)c3nc4ccccc4nc23)cc1	-5.04
CCCCN(C)CCn1c(=S)[nH]c2ccc(N3CCOCC3)cc2c1=O	-26
CCOc1ccc(C(=O)N2CCCC2C(=O)O)cc1 (centres unmarked)	19.4

Compound	hERG current change (%, negative = inhibition) at 10uM [%]
COc1ccc(CNC2CCCCC2C)c(OC)c1 (centres unmarked)	-56.9
CCCCN1C(C)=CC(=C2C(=O)c3ccccc3C2=O)C=C1C	3.87
C=CCN1C(=O)c2ccc(C(=O)OCC(=O)N(CC)C3CCS(=O)(=O)C3)cc2C1=O (centres unmarked)	-13.8
CCN(CC)C(=O)CSc1nnc(-c2cccnc2)n1CCc1ccccc1	-5.95
CN(C)NC(=S)Nc1ccc2nc(-c3ccccn3)c(-c3ccccn3)nc2c1	8.39
COc1ccc2c(c1OC)C(=O)N1N=C(c3ccc(Cl)cc3)CC21 (centres unmarked)	-28.3
CCc1nc(C#N)c(N2CCCCC2)o1	16.2
Cn1ccnc1SCc1cn2cc(Br)ccc2n1	-5.22
Oc1ccc(-c2nnc(-c3ccc(O)cc3)nn2)cc1	14.7
COc1cc(C(=O)NCCC(=O)NCCN2CCCCCC2)cc(OC)c1OC	-6.34
CCOc1ccc(-c2c(C(=O)N/N=C/c3cccnc3)nnn2-c2nonc2N)cc1	9.94
CC(C)[C@H](NC(=O)[C@@H]1Cc2ccccc2CN1C(=O)OC(C)(C)C)C(=O)NC1CCCC1	16
CC(C)NC(=O)Cn1c(SCC(=O)N2CCCc3ccccc32)nc2ccccc21	11.6
CC(=O)c1ccc(NC(=S)N2CCN(c3cccc(Cl)c3)CC2)cc1	-16.2
CCOc1ccc(C(=O)Nc2ccccc2C#N)cc1[N+](=O)[O-]	-55.6
CCOCCCn1c(SCC(=O)N(C)C2CCS(=O)(=O)C2)nc2ccccc2c1=O (centres unmarked)	-37.5
COc1ccc(NC(=O)N2C3CCCC2CC(NC(=O)c2ccccc2)C3)cc1 (centres unmarked)	-15.9
C=C(C)CNC(=S)NNC(=O)c1ccc(Br)cc1	6.24
COc1ccc(Cl)c(NC(=O)C/C(C)=N/NC(=O)CCc2ccccc2)c1	-1.95
COc1ccc(C2SCC(=O)N2c2c(C)n(C)n(-c3ccccc3)c2=O)cc1 (centres unmarked)	-2.6
CN1CCN(c2ccc([N+](=O)[O-])cc2/C=N/NC(=O)c2cccc([N+](=O)[O-])c2)CC1	-54
N#Cc1cccnc1N1CCN(C(=O)c2ccco2)CC1	9.49
